Results published in PubChem BioAssay AID1460 (National Center for Advancing Translational Sciences (NCATS), 2008).
Out of some 270,000 compounds screened, about 5,800 (2.1%) were called active. The shares of active, inactive and inconclusive entries below differ from those in the screen. Calls come from the whole dose curve; as a rule, active = well fitted inhibition curve with a large enough effect; inconclusive = small, poorly fitted or top-dose-only effect; inactive = flat fitted curve, though single readings scatter. Where the call is inconclusive, the potency comes from a doubtful curve fit.

What follows are compounds tested against Microtubule-associated protein tau (Homo sapiens) (UniProt P10636) (assay: qHTS for Inhibitors of Tau Fibril Formation, Thioflavin T Binding). Details: recombinant tau K18 P301L (four-repeat tau fragment), heparin-induced fibrillization, ThT fluorescence; series mostly up to 57.4 µM.
Chain of UniProt P10636 (P10636 whole entry, looked up, the tested form may be a part): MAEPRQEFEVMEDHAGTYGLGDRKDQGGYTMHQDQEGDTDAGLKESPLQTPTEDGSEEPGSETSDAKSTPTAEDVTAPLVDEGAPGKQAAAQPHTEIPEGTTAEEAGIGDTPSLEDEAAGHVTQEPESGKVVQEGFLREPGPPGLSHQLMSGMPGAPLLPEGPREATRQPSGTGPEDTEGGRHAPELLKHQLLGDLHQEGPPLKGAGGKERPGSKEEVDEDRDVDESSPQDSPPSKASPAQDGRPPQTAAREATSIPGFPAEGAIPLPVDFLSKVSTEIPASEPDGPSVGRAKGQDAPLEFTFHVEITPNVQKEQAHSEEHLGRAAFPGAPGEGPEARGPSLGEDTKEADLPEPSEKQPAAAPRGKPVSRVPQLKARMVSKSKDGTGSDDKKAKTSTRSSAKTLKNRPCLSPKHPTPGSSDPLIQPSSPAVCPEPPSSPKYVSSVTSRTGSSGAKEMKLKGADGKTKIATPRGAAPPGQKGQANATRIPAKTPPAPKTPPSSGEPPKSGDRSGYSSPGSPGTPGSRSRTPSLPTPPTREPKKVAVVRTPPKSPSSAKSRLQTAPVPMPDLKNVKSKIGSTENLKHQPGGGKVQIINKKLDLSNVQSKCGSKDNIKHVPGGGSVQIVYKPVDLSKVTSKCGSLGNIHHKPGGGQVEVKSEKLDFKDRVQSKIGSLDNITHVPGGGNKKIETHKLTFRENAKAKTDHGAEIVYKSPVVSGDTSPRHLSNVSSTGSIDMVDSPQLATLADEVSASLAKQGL
Method in brief: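 K18 P301L tau (15 uM + 0.24 uM Alexa 594-tagged), heparin 20 uM, NaOAc pH 7, 6 h 37 C; ThT 30 uM, 1 h RT, ex 450/em 510 nm.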
Note: nearly all actives have a fitted effect of over 55% in size.
Potency is the fitted concentration of half-maximal effect; tags give direction and shape of the fitted curve.

Structure (SMILES) | Potency
S=c1[nH]nc(-c2ccco2)n1/N=C/c1ccc(Br)s1 | inconclusive: 39.8 µM [inhibitor, single point]
COc1cccc2sc(N(Cc3cccnc3)C(=O)COc3ccccc3)nc12 | inactive
CC1=CC2=NC(=O)/C(=C/c3coc4ccccc4c3=O)C(=N)N2O1 | inconclusive: 5.01 µM [inhibitor, partial curve, poor fit]
CCc1nc(N2CCCCC2)c2oc3ccccc3c2n1 | inconclusive: 15.8 µM [inhibitor, partial curve]
O=C(C1CC1)N1CCN(c2nc3ccccc3s2)CC1 | inconclusive: 2 µM [inhibitor, full curve]
CCCCCOC(=O)CSc1nc2c(c(=O)[nH]c(=O)n2C)n1CCc1ccccc1 | inconclusive: 8.91 µM [inhibitor, full curve, poor fit]
CCOc1ccc(C(=O)Nc2nnc(SCc3cc(=O)c4cc(C)ccc4[nH]3)s2)cc1 | inconclusive: 0.708 µM [inhibitor, full curve]
CC1CCc2sc(C(=O)N=Nc3c(O)[nH]c4ccccc34)cc2C1 (stereo not drawn) | inconclusive: 3.16 µM [inhibitor, full curve]
C=CCNCCCOc1ccc(C(C)(C)c2ccccc2)cc1 | inactive
Brc1cc2c(cc1/C=N/Nc1nc3ccccc3s1)OCO2 | inconclusive: 6.31 µM [inhibitor, partial curve]
Cc1ccc(NC(=O)CN2CCN(c3ccccn3)CC2)c(Cl)c1 | inconclusive: 31.6 µM [inhibitor, partial curve]
CCCCCCn1c(=O)[nH]c2nc3cc(N)c(C)cc3nc2c1=O | inactive
COc1ccc(N(CCCN2C(=O)c3cccc4cccc(c34)C2=O)C(=O)c2cccnc2)cc1 | inconclusive: 15.8 µM [inhibitor, partial curve]
NS(=O)(=O)c1ccc(N/C=C/C(=O)c2ccc(Br)cc2)cc1 | inactive
Cc1nn(Cc2ccccc2)c(C)c1NC(=O)CCCn1nc(C)c([N+](=O)[O-])c1C | inactive
O=C(NCc1ccccc1Cl)C(=O)NCC1OCCN1S(=O)(=O)c1cccs1 (stereo not drawn) | inactive
CC1=NCC(C)c2c1[nH]c1ccccc21 (stereo not drawn) | inconclusive: 17.8 µM [inhibitor, partial curve]
CCc1ccccc1NC(=O)Nc1cc(C(=O)NCc2ccc(C(C)C)cc2)ccc1N1CCCC1 | inactive
COc1ccc(/C(O)=C2\C(=O)C(=O)N(Cc3ccco3)C2c2ccc(OC)cc2OC)cc1 (stereo not drawn) | inconclusive: 20 µM [inhibitor, partial curve]
Cc1ccc2nc(Nc3ncc4c(n3)CCCC4=O)nc(C)c2c1 | inconclusive: 20 µM [inhibitor, partial curve]
COc1ccc(NC(=O)c2ccc3c(=O)n(Cc4ccco4)c(=S)[nH]c3c2)c(OC)c1 | inconclusive: 3.55 µM [inhibitor, full curve]
Cc1nc2c(-c3ccc(F)cc3)c(C)nn2c(C)c1CCC(=O)N1CCC(Cc2ccccc2)CC1 | inconclusive: 14.1 µM [inhibitor, partial curve]
Cc1ccsc1/C=N/NC(=O)c1c[nH]c2ccccc12 | inconclusive: 0.224 µM [inhibitor, partial curve, poor fit]

Structure (SMILES) | Potency
CC(NC(=O)c1ccc(Cl)s1)C1CCCO1 (stereo not drawn) | inactive
CCOC(=O)c1c(Nc2cccc(O)c2)nnc(-c2ccccc2)c1-c1ccccc1 | inconclusive: 39.8 µM [inhibitor, partial curve, poor fit]
C=C(C(=O)c1ccccc1)C(CC(=O)c1ccccc1)c1ccccc1 (stereo not drawn) | inconclusive: 20 µM [inhibitor, single point]
Cc1ccccc1-c1nc(CS(=O)CC(=O)NCc2ccccc2)c(C)o1 (stereo not drawn) | inconclusive: 39.8 µM [inhibitor, partial curve, poor fit]
COc1c(Cl)cc(C(=O)Nc2cccc(-c3nc4ccccc4[nH]3)c2)cc1Cl | inconclusive: 2.51 µM [inhibitor, partial curve, poor fit]
COc1ccc2c(C)cc(SCc3c(C)noc3C)nc2c1 | inconclusive: 28.2 µM [inhibitor, partial curve]
CCC/C=C/C(C)O (stereo not drawn) | inactive
COc1ccc(C2c3[nH]c4ccccc4c3CC3C(=O)N(CCc4ccc(OC)c(OC)c4)CC(=O)N32)cc1 (stereo not drawn) | inconclusive: 2.82 µM [inhibitor, partial curve]
O=C(NCc1ccco1)/C(=C\c1ccco1)NC(=O)c1ccc(Br)o1 | inactive
O=C(Nc1nnc(S(=O)(=O)N2CCCCCC2)s1)c1ccc(Br)cc1 | inconclusive: 3.55 µM [inhibitor, partial curve]
O=C(Cn1ncc2c([nH]c3ccccc32)c1=O)Nc1cc(F)ccc1F | inconclusive: 0.631 µM [activator, full curve, poor fit]
CC(=NCCc1c(C)[nH]c2ccc(C)cc12)C1=C(O)CC(c2ccccc2)CC1=O (stereo not drawn) | inconclusive: 12.6 µM [inhibitor, partial curve]
COc1ccc(-c2[nH]c(-c3ccc(C)cc3)nc2SCC(=O)NCc2ccco2)cc1OC | inconclusive: 17.8 µM [inhibitor, partial curve, poor fit]
CCOc1ccc(NC(=O)Nc2cccs2)cc1 | inconclusive: 17.8 µM [inhibitor, partial curve]
COc1ccc(C(=O)N(Cc2sccc2C)C2CCS(=O)(=O)C2)cc1Cl (stereo not drawn) | inactive
O=c1oc2cc(OCc3c(F)cccc3Cl)ccc2cc1-c1ccccn1 | inactive
Cc1ccc(C(=O)Nc2ccc(C(=O)O)cc2)cc1S(=O)(=O)Nc1cccc([N+](=O)[O-])c1 | inconclusive: 17.8 µM [inhibitor, partial curve]
O=C(CSc1nc2ccccc2nc1Cc1ccc(F)cc1)Nc1ccc2c(c1)OCO2 | inactive
Cc1cccc(Oc2nc3ccccn3c(=O)c2/C=C(\C#N)c2nc3ccccc3s2)c1C | inactive
COc1ccc(S(=O)(=O)Cc2ccc(C(=O)N3CCN(c4ccccc4)CC3)o2)cc1 | inconclusive: 22.4 µM [inhibitor, single point]
CCOc1ccccc1C1CC(=O)NC(C)=C1C(=O)OC1CCCCCC1 (stereo not drawn) | inconclusive: 28.2 µM [inhibitor, single point]
O=C(COc1ncnc2ccccc12)c1ccc2c(c1)OCCO2 | inconclusive: 14.1 µM [inhibitor, partial curve]
Brc1csc(C=Nc2ccc3c(c2)OCCOCCOCCOCCO3)c1 | inactive

Structure (SMILES) | Potency
Cc1ccc(-c2cc(C(=O)NCc3ccccn3)c3ccccc3n2)cc1C | inconclusive: 12.6 µM [inhibitor, partial curve]
Cc1ccc(CN2CC(C(=O)Nc3nnc(SCc4c(Cl)cccc4Cl)s3)CC2=O)cc1 (stereo not drawn) | inactive
O=C(Nc1cc(S(=O)(=O)Nc2ccc(Cl)cc2)ccc1O)c1ccc(S(=O)(=O)N2CCCCCC2)cc1 | inconclusive: 39.8 µM [inhibitor, single point]
Cc1cccc(OCc2nnc(SCC(=O)Nc3ccc(C)c(Cl)c3)o2)c1 | inconclusive: 2 µM [inhibitor, full curve]
COc1cc2c(cc1OC)C(C(=O)O)C(c1cc(Br)c(O)c(OC)c1)N(C)C2=O (stereo not drawn) | inconclusive: 12.6 µM [inhibitor, partial curve]
CCOC(=O)N1CCN(/C=C(\C#N)c2nc3ccccc3s2)CC1 | inconclusive: 0.891 µM [inhibitor, partial curve]
Cc1ccc(S(=O)(=O)N(C)Cc2ccc(-c3nnco3)cc2)cc1 | inactive
CCOc1cccc(OCCCOc2cccc3cccnc23)c1 | inconclusive: 17.8 µM [inhibitor, single point]
CCCCn1cc(S(=O)(=O)c2ccc(CC)cc2)c(=O)c2cc(F)c(N3CCCC(C)C3)cc21 (stereo not drawn) | inactive
C(=N\Nc1nc(-c2ccccc2)cs1)/c1ccco1 | active: 14.1 µM
O=c1[nH]c(O)c(/C=C2\C=Nc3ccccc32)[nH]1 | inconclusive: 2.24 µM [inhibitor, partial curve]
Cc1ccc(N=Cc2nc(/C=C/c3cccc([N+](=O)[O-])c3)oc2O)cc1 | active: 1.41 µM
O=C(COc1ccc2c(c1)OCO2)Nc1ccc2c(c1)oc1ccccc12 | inconclusive: 3.55 µM [inhibitor, full curve]
Clc1cc(-c2ccc(/C=N/n3cnnc3)o2)ccc1Br | inconclusive: 5.01 µM [inhibitor, full curve, poor fit]
O=C(/C=C/c1ccccc1)N1CCC(Cc2ccccc2)CC1 | inactive
O=C(Nn1cnnc1)c1ccc([N+](=O)[O-])cc1 | inconclusive: 25.1 µM [inhibitor, single point]
COc1ccc(OC)c(NC(=O)c2ccc(-c3nc(CSc4ccccc4)c(C)o3)cc2)c1 | inconclusive: 8.91 µM [inhibitor, partial curve]
O=[N+]([O-])c1ccc2[nH]ncc2c1 | inconclusive: 31.6 µM [inhibitor, partial curve]
CC(NC(=O)CN(c1cccc(C(F)(F)F)c1)S(=O)(=O)c1ccc(Cl)c([N+](=O)[O-])c1)c1ccccc1 (stereo not drawn) | inconclusive: 8.91 µM [inhibitor, partial curve]
O=C1/C(=C/c2cccs2)NC(=S)N1C1CC1 | inconclusive: 39.8 µM [inhibitor, single point]
CCC(=O)Nc1ccc(NC(=O)/C=C/c2ccc(Cl)cc2)cc1 | inconclusive: 1.78 µM [inhibitor, full curve, poor fit]
COc1ccc(N2CCN(C(c3cccs3)C(C)NS(C)(=O)=O)CC2)cc1 (stereo not drawn) | inactive
